# The other results are listed elsewhere or left out. Sequences were assembled here from the parent chain. Inactive controls read about 0.05.
# B1: TEV protease; numbered along this chain (parent)
# chain: MGESLFKGPRDYNPISSSICHLTNESDGHTTSLYGIGFGPFIITNKHLFRRNNGTLVVQSLHGVFKVKDTTTLQQHLVDGRDMIIIRMPKDFPPFPQKLKFREPQREERICLVTTNFQTKSMSSMVSDTSCTFPSGDGIFWKHWIQTKDGQCGSPLVSTRDGFIVGIHSASNFTNTNNYFTSVPKNFMELLTNQEAQQWVSGWRLNADSVLWGGHKVFMVKPEEPFQPVKEATQL
# Variants of: B1
# Assay: raw area under fraction-flipped curve 0-4 h after induction (AUC4h, not background-subtracted), DNA-recorder readout of cleavage of the substrate (dimensionless); higher = more cleavage of the substrate by the protease variant
# Details: temperature: 34 °C; time window: 0-4 h after rhamnose induction
# Description: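 In vivo DNA recorder in E. coli TOP10(DE3) ΔrhaA at 34 °C. Each TEVp single-site mutant (parent TEVp 0) is paired with a single-site variant of the 7-mer TEVs (canonical ENLYFQ|S). The substrate sits between flexible linkers in a Bxb1-sfGFP-TEVs-SsrA fusion, so cleavage stabilises Bxb1 and speeds flipping of a recombination array, read by NGS. The value is the raw area under the fraction-flipped curve over 0-4 h after rhamnose induction (AUC4h), with ≥20 reads per time point. It is not background-subtracted; inactive controls average about 0.047.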
# 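Also: Bxb1 expression induced with 0.2% (w/v) L-rhamnose at OD600 near 0.5, cultures sampled hourly, flipped fraction per protease–substrate barcode pair counted by paired-end Illumina sequencing.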
Variant,area with substrate ENAYFQS,area with substrate ENCYFQS,area with substrate ENDYFQS,area with substrate ENEYFQS,area with substrate ENFYFQS,area with substrate ENGYFQS,area with substrate ENHYFQS,area with substrate ENNYFQS,area with substrate ENPYFQS,area with substrate ENQYFQS,area with substrate ENRYFQS,area with substrate ENSYFQS,area with substrate ENVYFQS,area with substrate ENWYFQS,area with substrate ENYYFQS,area with substrate ENIYFQS,area with substrate ENKYFQS,area with substrate ENTYFQS,area with substrate ENMYFQS
M122E,0.0418,0.0481,0.0501,0.0603,0.0722,0.0708,0.0738,0.0644,0.0456,0.0801,0.0511,0.104,0.0894,0.0497,0.0688,–,–,–,–
M122Q,0.0541,0.0613,0.0412,0.0748,0.0562,–,0.0473,0.0564,0.0578,0.0753,0.0528,0.0683,0.0856,–,–,0.0956,0.0647,0.0482,–
S123K,0.0526,0.0697,0.0625,0.0624,–,0.0523,0.0547,0.064,0.0798,0.0594,0.0762,0.0652,0.109,0.06,0.0723,–,0.0566,0.0563,0.0684
S123M,0.0643,–,0.0525,0.0626,0.0568,0.0648,0.0577,0.0413,0.0488,–,0.0614,0.0703,0.0673,0.0241,–,–,–,0.0509,–
S123A,0.066,–,–,0.0654,0.057,0.0446,–,0.0635,–,0.0548,–,0.0628,–,–,–,–,0.0546,0.0629,0.0773
N116D,0.0552,0.0652,0.0605,0.0445,0.053,0.0619,0.0465,–,0.0682,0.047,0.0478,0.0705,0.0787,–,0.0603,0.113,0.0657,–,0.0805
N116Q,0.0419,0.07,–,0.0617,0.0534,0.0638,0.0633,0.0593,–,–,0.0304,–,0.0836,0.0534,0.063,–,0.0691,0.056,–
K100R,0.0568,0.0793,0.0692,0.0858,–,0.0686,0.061,–,0.0622,0.0586,0.055,0.0507,0.0792,0.0674,–,–,–,0.0502,0.0606
K100V,0.0867,0.0632,0.0577,–,0.0504,–,0.0393,0.0643,–,0.0617,0.0516,0.0731,0.0904,–,0.0527,–,0.0632,0.0839,–
K100E,0.0682,–,0.0737,0.0639,0.0638,0.0614,0.0548,0.0594,–,0.0368,0.0533,0.017,0.0653,0.073,–,0.115,0.0662,0.0544,–
K100L,0.0577,–,0.0559,0.0806,–,0.0528,–,0.0689,0.0515,0.0526,0.0499,–,–,–,–,–,–,0.0535,0.0717
E103L,0.0638,0.0692,0.0688,0.0849,–,–,0.0755,–,0.0648,–,–,0.0728,0.0772,0.0569,0.0566,–,–,0.0732,–
E103Q,0.0345,0.0834,0.0576,0.0591,0.0436,0.0615,0.0638,0.0698,0.0642,0.0616,–,0.0662,0.0745,–,–,0.0887,–,0.0638,0.0733

# From the supplement of paper PMC12217912
